The values below come from a collection of fitness landscapes (doi:10.1126/science.1257360).

The labels stand for the following.
B1: PhoQ; a variant is named by its letters at X, in order, P23837 (parent)
chain: MKKLLRLFFPLSLRVRFLLATAAVVLVLSLAYGMVALIGYSVSFDKTTFRLLRGESNLFYTLAKWENNKLHVELPENIDKQSPTMTLIYDENGQLLWAQRDVPWLMKMIQPDWLKSNGFHEIEADVNDTSLLLSGDHSIQQQLQEVREDDDDAEMTHSVAVNVYPATSRMPKLTIVVVDTIPVELKSSYMVWSWFIYVLSANLLLVIPLLWVAAWWSLRPIEALAKEVRELEEHNRELLNPATTRELTSLVRNLNRLLKSERERYDKYRTTLTDLTHSLKTPLXXLQXXLRSLRSEKMSVSDAEPVMLEQISRISQQIGYYLHRASMRGGTLLSRELHPVAPLLDNLTSALNKVYQRKGVNISLDISPEISFVGEQNDFVEVMGNVLDNACKYCLEFVEISARQTDEHLYIVVEDDGPGIPLSKREVIFDRGQRVDTLRPGQGVGLAVAREITEQYEGKIVAGESMLGGARMEVIFGRQHSAPKDE

The other results are listed elsewhere or left out.

Variants of B1 are the subject of this assay. The assay can be described thus: enrichment ratio after two sorts for PhoP signalling (ratio (wild type AVST 3.29)); higher = more functional. Particulars: with PhoP (E. coli).
As to QLKM, the enrichment ratio is at most 0.25. DYQF: the enrichment ratio is at most 0.25.

With QIPT, the enrichment ratio is at most 0.25. Take PKPL: the enrichment ratio is at most 0.25. As for IMHY, the enrichment ratio is at most 0.25. With YQDK, the enrichment ratio is at most 0.25. Regarding PFII, the enrichment ratio is at most 0.25. Next, LIGS: at most 0.25; RQTR: at most 0.25. Take PQMC: the enrichment ratio is at most 0.25. On to YGDH, for which the enrichment ratio was at most 0.25. As for AETL, the enrichment ratio was determined as 15.1. Turning to QDTP, the enrichment ratio was at most 0.25. With MHMI, the enrichment ratio is at most 0.25. As to FKSH, the enrichment ratio was at most 0.25. For the variant HRTR, the enrichment ratio is at most 0.25. Take GMWM: the enrichment ratio was at most 0.25. With DNIV, the enrichment ratio was at most 0.25.

As to EMPP, the enrichment ratio is at most 0.25.

NAKG: the enrichment ratio was at most 0.25. In the case of PTVC, the enrichment ratio is at most 0.25. As for IIFI, the figure is at most 0.25; as for IIMF, at most 0.25.

Consider HILI, for which the enrichment ratio is at most 0.25. With QSLF, the enrichment ratio is at most 0.25. On to QHLQ, for which the enrichment ratio was at most 0.25. Turning to DPVM, the enrichment ratio was at most 0.25.

Regarding AVVA, the enrichment ratio came out at 0.904.

Consider KYGL, for which the enrichment ratio is at most 0.25. Next, SFLD: at most 0.25. Next, ARPG: at most 0.25; STPK: at most 0.25. With EQQT, the enrichment ratio was at most 0.25. In the case of SAQF, the enrichment ratio was 0.953.

As for LFDW, the enrichment ratio was at most 0.25. Turning to QLNG, the enrichment ratio is at most 0.25. As for ICYQ, the figure is at most 0.25. Next, HKQT: at most 0.25.

On to SGQK, for which the enrichment ratio was at most 0.25.

With ACPL, the enrichment ratio was 5.04.

As for WLNS, the enrichment ratio is at most 0.25. Next, SEYI: 4.33; NNMQ: at most 0.25. For NDPH, the enrichment ratio is at most 0.25. On to FHIR, for which the enrichment ratio is at most 0.25. For KPDR, the enrichment ratio is at most 0.25. As to MGSC, the enrichment ratio was determined as 9.47. With RQGS, the enrichment ratio is at most 0.25.

Regarding NRKT, the enrichment ratio is at most 0.25. DIWK: the enrichment ratio was at most 0.25. Consider HHDK, for which the enrichment ratio is at most 0.25.

On to NMGN, for which the enrichment ratio is at most 0.25. For AMCG, the enrichment ratio was 9.64. FYRF: the enrichment ratio is at most 0.25. Regarding IPLA, the enrichment ratio is at most 0.25.

Consider HGGH, for which the enrichment ratio was at most 0.25. Turning to ITFY, the enrichment ratio is at most 0.25. Regarding SEMA, the enrichment ratio stood at 13.6.

Consider KNRP, for which the enrichment ratio was at most 0.25. For QDYC, the enrichment ratio was at most 0.25.

Turning to EHNS, the enrichment ratio was at most 0.25. Consider HVFN, for which the enrichment ratio is at most 0.25.

Regarding LPMA, the enrichment ratio is at most 0.25. Consider SYDI, for which the enrichment ratio is at most 0.25. For the variant VRAI, the enrichment ratio is at most 0.25.

Take FIIW: the enrichment ratio is at most 0.25. Turning to SDPR, the enrichment ratio is at most 0.25. As for KQMK, the figure is at most 0.25; as for WEDG, at most 0.25. With REKP, the enrichment ratio is at most 0.25. As to KFQI, the enrichment ratio is at most 0.25. As to WRSA, the enrichment ratio is at most 0.25.

Regarding CSWY, the enrichment ratio is at most 0.25.

With NCVP, the enrichment ratio is at most 0.25.

Consider AEWK, for which the enrichment ratio is at most 0.25. PDAM: the enrichment ratio was at most 0.25. As for FKCC, the figure is at most 0.25; as for TIAH, 9.22.

Regarding KVFA, the enrichment ratio was at most 0.25. In the case of IGFC, the enrichment ratio is at most 0.25. As to FIIT, the enrichment ratio is at most 0.25.

LWEP: the enrichment ratio was at most 0.25.

In the case of GKDA, the enrichment ratio was at most 0.25. For TVTM, the enrichment ratio was found to be 16.6. On to KSWT, for which the enrichment ratio is at most 0.25.

Turning to RGCK, the enrichment ratio is at most 0.25.

Take NYHG: the enrichment ratio was at most 0.25. Next, TQKG: at most 0.25. Turning to VCSN, the enrichment ratio was at most 0.25.

In the case of YNYN, the enrichment ratio was at most 0.25. As to WSHS, the enrichment ratio is at most 0.25. In the case of EGRT, the enrichment ratio is at most 0.25.

With PVCW, the enrichment ratio is at most 0.25. Next, KCRS: 0.38; NFPV: at most 0.25.

On to HICD, for which the enrichment ratio was at most 0.25.

For WPIG, the enrichment ratio is at most 0.25. Consider TWTL, for which the enrichment ratio is at most 0.25. With IEHR, the enrichment ratio is at most 0.25. Consider HMNF, for which the enrichment ratio is at most 0.25. For MREQ, the enrichment ratio is at most 0.25. Next, VYPW: at most 0.25; LYDF: at most 0.25. For the variant IFVI, the enrichment ratio is at most 0.25. Next, MFTK: at most 0.25. For the variant VETF, the enrichment ratio was at most 0.25.

With DMEM, the enrichment ratio is at most 0.25. As for RNDY, the figure is at most 0.25.

WPCE: the enrichment ratio was at most 0.25. As for HPVG, the enrichment ratio was at most 0.25. Regarding FDWP, the enrichment ratio was at most 0.25. Consider QACN, for which the enrichment ratio was at most 0.25.

Turning to VGCK, the enrichment ratio was at most 0.25. For the variant IRIW, the enrichment ratio was at most 0.25.

In the case of QVPE, the enrichment ratio was at most 0.25. As to VFCL, the enrichment ratio was at most 0.25. Next, QFFE: at most 0.25; HSRI: at most 0.25; FHVE: at most 0.25. Regarding KLLK, the enrichment ratio is at most 0.25. As for IWLW, the enrichment ratio was at most 0.25. Take NAMV: the enrichment ratio was at most 0.25. Regarding INCF, the enrichment ratio was 2.89. SVHC: the enrichment ratio was at most 0.25. As to DSMV, the enrichment ratio is at most 0.25. On to FAPI, for which the enrichment ratio is at most 0.25. With PIAY, the enrichment ratio was at most 0.25. As for TEEL, the figure is at most 0.25; as for VSNT, at most 0.25; as for TARY, at most 0.25. Next, SLYK: at most 0.25. In the case of SCIS, the enrichment ratio is 4.23. In the case of KIWV, the enrichment ratio was at most 0.25. Turning to VWKQ, the enrichment ratio is at most 0.25. In the case of IYVN, the enrichment ratio is at most 0.25. On to TYDP, for which the enrichment ratio was at most 0.25. On to FDMD, for which the enrichment ratio was at most 0.25. In the case of AYGH, the enrichment ratio was at most 0.25.

As for TQGH, the enrichment ratio was found to be 18.9.

Take RPGN: the enrichment ratio was at most 0.25. Take KWAG: the enrichment ratio is at most 0.25.

Consider MNYI, for which the enrichment ratio was determined as 9.81. As for PYMY, the figure is at most 0.25; as for TELR, 2.77; as for VTPN, at most 0.25. Consider FESY, for which the enrichment ratio was at most 0.25.

Turning to DHEH, the enrichment ratio was at most 0.25. On to CFHL, for which the enrichment ratio was at most 0.25. Next, MLMG: at most 0.25; DHRM: at most 0.25; VRQS: at most 0.25. As to PTAR, the enrichment ratio is at most 0.25. As for FRID, the enrichment ratio was at most 0.25.

As for HPCD, the enrichment ratio is at most 0.25. Regarding SFQG, the enrichment ratio is at most 0.25. For the variant RCCS, the enrichment ratio is at most 0.25. Regarding SQVI, the enrichment ratio is 8.63. For the variant WRIP, the enrichment ratio is at most 0.25. As for MALK, the figure is at most 0.25; as for GETK, at most 0.25; as for HPTV, at most 0.25. On to AVCK, for which the enrichment ratio was 16.2. Consider EAFT, for which the enrichment ratio was at most 0.25.

For QFKI, the enrichment ratio is at most 0.25. As for TECS, the figure is 26.8; as for LMNS, at most 0.25; as for SHLN, 2.15. For NQKF, the enrichment ratio was at most 0.25. CLTP: the enrichment ratio is at most 0.25. On to IAFL, for which the enrichment ratio is at most 0.25.

On to SAPI, for which the enrichment ratio was determined as 10.2. As for IHWW, the enrichment ratio was at most 0.25. AYVD: the enrichment ratio is at most 0.25. As for RKSY, the enrichment ratio was at most 0.25. On to LIIG, for which the enrichment ratio was at most 0.25.

SDAV: the enrichment ratio is 5.41. Next, ENLL: at most 0.25; FQPD: at most 0.25; AWWR: at most 0.25. TNRW: the enrichment ratio was at most 0.25. For WQHQ, the enrichment ratio was at most 0.25. For DLGC, the enrichment ratio was 0.982.

Take HDLT: the enrichment ratio is at most 0.25. MFWG: the enrichment ratio was at most 0.25. For DHLQ, the enrichment ratio was at most 0.25. Next, RHQP: at most 0.25. On to MEMI, for which the enrichment ratio was determined as 0.468.

With SPGL, the enrichment ratio was at most 0.25. With FFGG, the enrichment ratio was at most 0.25. Take DNLQ: the enrichment ratio was at most 0.25.

As to MAIR, the enrichment ratio was at most 0.25. Turning to LAIW, the enrichment ratio was at most 0.25.

In the case of APWV, the enrichment ratio is at most 0.25. Turning to FSIG, the enrichment ratio is at most 0.25. On to NDHN, for which the enrichment ratio was at most 0.25.
